Hit rate of the full screen: of about 110,000 compounds, about 230 (0.21%) showed an effect of 50% or more. Some of the results follow.
These compounds were tested against DPAP1 (Plasmodium falciparum, UniProt Q8IIJ9) (assay: primary screen, percent inhibition; read by cleavage of a fluorogenic dipeptide substrate; higher = more effect of the substance).
Design: species or system P. falciparum D10 trophozoite lysates; single well
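Note: 30 min substrate incubation versus DMSO and 10 µM JCP410 controls.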

DPAP1, sequence (Q8IIJ9 whole entry, looked up): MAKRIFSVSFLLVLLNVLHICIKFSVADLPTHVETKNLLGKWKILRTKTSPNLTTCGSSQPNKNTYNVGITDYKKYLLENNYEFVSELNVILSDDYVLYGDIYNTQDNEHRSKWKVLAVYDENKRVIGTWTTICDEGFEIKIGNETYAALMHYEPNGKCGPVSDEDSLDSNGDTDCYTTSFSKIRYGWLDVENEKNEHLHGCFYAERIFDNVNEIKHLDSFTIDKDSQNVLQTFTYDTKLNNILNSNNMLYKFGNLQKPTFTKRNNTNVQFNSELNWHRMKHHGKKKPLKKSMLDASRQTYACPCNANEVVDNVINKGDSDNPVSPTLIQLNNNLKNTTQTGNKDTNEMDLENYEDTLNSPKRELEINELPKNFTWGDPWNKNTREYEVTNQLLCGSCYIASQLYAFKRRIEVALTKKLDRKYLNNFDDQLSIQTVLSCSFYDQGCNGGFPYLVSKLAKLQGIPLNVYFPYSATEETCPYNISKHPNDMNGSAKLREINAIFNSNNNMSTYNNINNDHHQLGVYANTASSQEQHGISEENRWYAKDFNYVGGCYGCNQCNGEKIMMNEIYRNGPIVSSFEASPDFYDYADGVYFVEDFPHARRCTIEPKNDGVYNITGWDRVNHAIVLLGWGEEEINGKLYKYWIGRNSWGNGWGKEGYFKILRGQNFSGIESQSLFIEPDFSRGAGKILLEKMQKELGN

Compound	% Inhibition @ 10 uM [%]
CCN1CCC(NCCc2ccccc2F)CC1	-3.6
COc1ccc(-c2noc(CN3CCCC(C(=O)NCc4ccco4)C3)n2)cc1OC (centres unmarked)	-2.71
COc1ccc(/C=N/N=C(\N)c2nonc2N)c(OC)c1	0.146
Cc1ccc(C(=O)Nc2ccc(S(=O)(=O)N3CCOCC3)cc2)cc1S(=O)(=O)N1CCCC1	4.75
Cn1c(=O)c2c(nc(CN3CCC(Cc4ccccc4)CC3)n2Cc2ccc(F)cc2)n(C)c1=O	1.23
Cc1cccc(C(=O)NC2CCN(Cc3ccccc3)CC2)c1	3.66
CCCC(/C(=N\O)c1ccccc1)n1cncn1 (centres unmarked)	0.986
NC(=O)C1CCN(C(=O)c2ccc(C#Cc3ccccc3)cc2)CC1	-1.32
CCOc1ccc(NC2=NC(=O)C(CC(=O)Nc3ccccc3F)S2)cc1 (centres unmarked)	-2.32
O=C1Nc2ccccc2C(O)(C(=O)NCc2ccco2)N1c1ccccc1 (centres unmarked)	-9.13
O=C(C1CCN(c2nnc(N3CCCC3=O)s2)CC1)N1CCN(Cc2ccccc2)CC1	-2.85
Cc1ccc(CNC(=O)c2cc(-c3ccccn3)nc3ccccc23)cc1	-0.406
CCOC(=O)c1[nH]c(C)c(C(=O)NCC2CCCO2)c1C (centres unmarked)	-1.28
C/C=C/C(=O)N1CCN(c2ccc([N+](=O)[O-])cc2)CC1	-4.94
CCN(CC)CCN(C)C1CCC(C)CC1 (centres unmarked)	-1.56
Cc1c(O)ccc2c(=O)c(Oc3ccc(Cl)cc3)c(C(F)(F)F)oc12	-1.42
CCCNC(=O)C1CCCN(c2nn3cc(-c4ccc(C)cc4)nc3s2)C1 (centres unmarked)	-3.6
COCCNc1nc2c(S(=O)(=O)c3c(C)cc(C)cc3C)nnn2c2ccccc12	-3.08
Cc1ccc(N2C(=O)Cn3c2nc2c3c(=O)n(C)c(=O)n2C)cc1C	0.528
COCCNC(=O)Cn1c(C)cc2ccccc2c1=O	-4.23
COc1ccc(C(=O)C2=C(O)C(=O)N(c3ccccn3)C2c2cccnc2)cc1 (centres unmarked)	-2.34
O/N=C1\CCCc2sc3c(c21)/C(=N/O)CCC3	0.708
CCN(CC)C(=O)C(=O)c1c(-c2ccccc2)[nH]c2ccccc12	-0.703
Cc1ccc(-c2cn3nc(N4CCC(C(=O)N5CCN(c6ccccn6)CC5)CC4)sc3n2)cc1	9.68
Cc1c(C(=O)N2CCC3(CC2)OCCO3)sc2ncn(CC(=O)N3CC(C)CC(C)C3)c(=O)c12 (centres unmarked)	2.8

Compound	% Inhibition @ 10 uM [%]
CCN1CCCC1CNC(=O)C1CCN(C(=O)c2c(C)nn(-c3ccccc3)c2-n2cccc2)CC1 (centres unmarked)	4.95
Cc1ccc(F)cc1NC(=O)Cn1nc(C(F)(F)F)cc1C	-1.38
c1ccc2c(c1)OCCOCCOCCOCCOc1ccccc1OCCOCCOCCO2	-3.97
CCCCCCn1c(SCC)nc2c1c(=O)[nH]c(=O)n2C	4.11
Cc1nc2c(c(C)nn2C)c(C)c1CCC(=O)NCCC(C)C	-10
CCC1=NN2C(=N)/C(=C\c3cccn3-c3ccc(OC)c(Cl)c3)C(=O)N=C2S1	-1.54
Cc1onc(-c2c(Cl)cccc2Cl)c1C(=O)N1CCOCC1	8.19
O=C(CSCc1cccc(Br)c1)Nc1ccc2c(c1)OCCO2	1.42
CC(C)(O)C1C(N2CCOCC2)C(C)(C)S1(=O)=O (centres unmarked)	-2.51
CCOc1ccc(S(=O)(=O)N2CCSC2c2ccc(OC)c(OC)c2)cc1 (centres unmarked)	25.4
CC(C)CCNc1cnn(C23CC4CC(CC(C4)C2)C3)c(=O)c1Cl	0.0579
CCOC(=O)N1CCN(C(=O)c2cnn3ccccc23)CC1	-2.92
Cc1cc(C)cc(Oc2nc3ccccn3c(=O)c2/C=C(\C#N)C(=O)NCc2ccccc2)c1	-3.23
COC(=O)C1=C(C)NC(=O)NC1c1ccc(Cl)c(Cl)c1 (centres unmarked)	-0.294
CN(C1CCCCC1)C1CCN(Cc2ccccc2)CC1	-1.15
Cc1ccc(N2C(N)=C(C#N)C(c3ccc4c(c3)OCO4)C3=C2CC(C)(C)CC3=O)cc1 (centres unmarked)	-0.305
CC1=C(C)CC(C(=O)c2ccccc2)C(C(=O)O)C1 (centres unmarked)	4.22
C=CCNC(=O)c1ccccc1NS(=O)(=O)c1ccc(C)cc1	0.727
Cc1oc(-c2ccc(Cl)cc2)nc1CN1CCC(C(=O)NCc2ccco2)CC1	-1.05
CCCN1C(=O)c2ccccc2NC1c1ccc(OC)cc1OC (centres unmarked)	-9.6
O=C(O)c1cc(S(=O)(=O)N2CCCCCC2)ccc1Br	-4.4
CC1=C(C(=O)OC2CCCCCC2)C(c2ccc(C)cc2)NC(=O)N1 (centres unmarked)	19.2
COc1ccc(-c2cc(C(F)(F)F)n3ncc(C(=O)N4CCCCC4)c3n2)cc1	-2.6
N#Cc1c(NC(=S)NC(=O)c2ccco2)sc2c1CCCC2	38.7
NS(=O)(=O)c1ccc2c(c1)OCCO2	1.87

Compound	% Inhibition @ 10 uM [%]
O=c1sc2ccccc2n1COc1ccccc1	-1.22
Cc1nn(C(C)C(=O)N2CCN(c3ccccn3)CC2)c(=O)c2cc3occc3n12 (centres unmarked)	-2
Cc1c(C(=O)Nc2ccccn2)c(C(=O)Nc2ccccc2)nn1-c1ccc(Cl)cc1	-10
CCCNC(=O)c1cc2nc(-c3ccccc3)cc(C(F)(F)F)n2n1	0.247
CCOCCCNC(=O)c1[nH]c2ccccc2c1Sc1ccc(C)cc1	-1.49
O=C(O)Cc1cc(C(=O)c2ccc(Cl)cc2)sc1-c1ccccc1	-4.02
COc1ccc(OC)c(NC(=O)c2ccc3c(c2)C(=O)N(c2ccc(Cl)cc2)C3=O)c1	-3.09
COc1cc(C(=O)Nc2ccc(C)cc2C)cc(OC)c1OC	-2.65
CC(Oc1ccc(-c2ccccc2)cc1)C(=O)O (centres unmarked)	1.12
CCCN(CC1CC1)C1CCN(C(C)=O)CC1	-3.5
CC1SC2(C(=O)Nc3ccccc32)N(c2ccc(Cl)c(Cl)c2)C1=O (centres unmarked)	4.32
COc1ccc(-c2nnc(-c3ccc(Cl)cc3)o2)cc1	5.45
COC(=O)c1ccc2oc(=O)c(-c3nc(-c4cccs4)no3)cc2c1	-3.88
CCC(C)NS(=O)(=O)c1cc(Br)cnc1N (centres unmarked)	8.44
C(=C\c1ccccc1)/CN1CCN(Cc2cccs2)CC1	-3.65
CCc1ccc(-c2cc(C)no2)cc1S(=O)(=O)N(C)Cc1ccccc1	6.76
O=C(Nc1ccc2c(c1)OCO2)C(Sc1ccccc1)c1ccccc1 (centres unmarked)	5.14
O=C(CSc1cn(CC(=O)N2CCOCC2)c2ccccc12)NCC1CCCO1 (centres unmarked)	7.24
N#CCNC(=O)[C@H](CS(=O)(=O)Cc1ccccc1)NC(=O)c1cccnc1	-3.49
CC1Nc2nc(N(C)C)nc(O)c2N(C(=O)C2=CN(Cc3ccccc3)CCC2)C1C (centres unmarked)	-6.83
Cc1ccc(NC(=O)CCC(=O)Nc2ccc(C)cc2C)c(C)c1	-0.318
CCOC(=O)N1CCN(C(=O)c2ccc(C/N=c3\c(O)c(O)\c3=N/C3CCCC3)cc2)CC1	7.76
CCOc1ccc(S(=O)(=O)N=Nc2c(O)[nH]c3ccccc23)cc1	22.5
CC(CCc1ccccc1)NCc1c(C(=O)O)n(C)c2ccccc12 (centres unmarked)	5.09
COc1ccc(N/C=C2/C(=O)N(c3ccc(OC)cc3)C(=O)c3cc(OC)ccc32)cc1	5.63

Compound	% Inhibition @ 10 uM [%]
Cc1[nH]c2ccccc2c1/C(Cc1ccccc1)=N/O	2.62
Cc1nc(-c2ccccc2)nc2nccc(O)c12	0.343
O=S(=O)(c1ccc(-n2cccn2)cc1)N1CCN(C(c2ccccc2)c2ccccc2)CC1	0.776
CCn1c(-c2ccc(OC)c(F)c2)cs/c1=N/c1ccccc1	2.92
CC1CCCCN1C(=O)CCc1nc(-c2ccc(Cl)cc2)no1 (centres unmarked)	0.366
CCOC(=O)c1c(NC(=O)c2ccc(Br)cc2)sc(C(=O)N2CCOCC2)c1C	11.6
O=C(Nc1ccccc1C#Cc1ccccc1)c1ccc(Br)cc1	-3.35
O=C(Cn1ncc2c(=O)oc3ccccc3c21)NCCCN1CCOCC1	-1.03
COc1ccc(C(=O)N2CCN(C34CC5CC(CC(C5)C3)C4)CC2)cc1OC	-6.74
CCC1CCC(C(=O)NC(C(=O)NCCc2ccc(S(N)(=O)=O)cc2)C(C)C)CC1 (centres unmarked)	-8.18
Cc1ccc(Cn2cc3c(O)nnc-3c3ccccc32)cc1	1.68
COc1c(C)cc(S(=O)(=O)NC2CC(C)(C)NC(C)(C)C2)c(C)c1C	-2.29
COc1ccc2c(c1)C1(C)CCCc3c(O)c(-c4ccccc4)c(=O)n-2c31 (centres unmarked)	-1.98
COCCNC(=O)C1CCC(CNS(=O)(=O)c2cccc3nsnc23)CC1 (centres unmarked)	-4.1
CCOc1ccc(NC(=O)C2=C(C)NC(=O)NC2c2cc(OC)c(OC)c(OC)c2)cc1 (centres unmarked)	6.71
CCN(CC)S(=O)(=O)c1ccc2[nH]c3c(c2c1)CCCC3	1.71
Cc1ccc(C(=O)Nc2nc(-c3nnn(-c4ccc(C)cc4)c3C)ns2)cc1	-4.33
O=C(c1ccco1)n1nc(-c2ccco2)nc1NCc1ccccc1Cl	2.21
COc1cccc2c1cc1c(=O)n(CC(=O)NC(C)CCc3ccccc3)nc(C)n12 (centres unmarked)	-1.7
Cc1ccc(CNC(=O)Cc2csc(Nc3nc(S)nc4ccccc34)n2)cc1	3.04
CC(O)CN1CCN(C(=O)CN2C(=O)NC(c3ccccc3)(c3ccccc3)C2=O)CC1 (centres unmarked)	-4.65
O=C(Cc1ccc(F)cc1)NCC1(c2ccccc2)CCCC1	-1.31
CC(=O)c1ccc(NC(=O)C23CCC(C)(C(=O)C2=O)C3(C)C)cc1 (centres unmarked)	1.27

Reference: paper PMC6919601, “Identification of Plasmodium dipeptidyl aminopeptidase allosteric inhibitors by high throughput screening” (PLoS ONE, 2019)
